# Assay results taken from the BET-seq Pho4 binding data (Le et al. 2018).
# This is one part of the list. The energies were worked out here from pooled read counts, against the library average; single values are noisy.
# Target: T1, Pho4 (S. cerevisiae) (UniProt P07270)
# T1 sequence: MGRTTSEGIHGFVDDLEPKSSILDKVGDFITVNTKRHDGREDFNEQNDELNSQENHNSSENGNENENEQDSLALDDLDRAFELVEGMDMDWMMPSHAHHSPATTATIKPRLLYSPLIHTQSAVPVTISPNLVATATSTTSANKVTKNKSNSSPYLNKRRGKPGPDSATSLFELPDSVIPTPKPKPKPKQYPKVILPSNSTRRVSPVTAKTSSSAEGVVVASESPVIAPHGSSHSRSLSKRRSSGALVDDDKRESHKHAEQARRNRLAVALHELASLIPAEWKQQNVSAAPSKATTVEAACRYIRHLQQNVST
# Experiment: relative binding free energy (BET-seq); higher = weaker binding
# Conditions: reference: library average
row,Sequence,relative binding free energy [kcal/mol]
1,GTAGACACGTGGTCGT,-0.12
2,TGGGGCACGTGAAGTC,0.19
3,GCGCTCACGTGGAGGG,0.22
4,TGCGTCACGTGAATAG,0.31
5,GGTTCCACGTGTAGTT,0.27
6,CCGTTCACGTGTTTGG,0.24
7,GTGAACACGTGGTTTG,0.05
8,CTGATCACGTGGCGGG,-0.01
9,CGGTGCACGTGAGAGG,0.09
10,GAAAACACGTGGGTGT,-0.04
11,TATATCACGTGGCGGA,0
12,CGTTACACGTGATGGG,0.22
13,ATTAGCACGTGTTGAA,-0.01
14,TGCTTCACGTGAGGTT,0.32
15,TTCTTCACGTGTAGAA,0.35
16,TTACTCACGTGCTGTG,0.17
17,GTGGGCACGTGGAAGA,0.05
18,GGTGTCACGTGATCGG,0.26
19,ATTGTCACGTGTCCGT,0.03
20,TGATTCACGTGGTCGG,0.09
21,CTTAACACGTGGTTTG,0.02
22,TTTTGCACGTGTACAT,0.01
23,GTTGGCACGTGTTCTA,0.03
24,TAGTTCACGTGTACAG,0.23
25,TAGGTCACGTGTTCGT,0.07
26,TGAATCACGTGTAGGA,0.33

row,Sequence,relative binding free energy [kcal/mol]
1,ATTGGCACGTGAGGTC,-0.01
2,TGTAGCACGTGTTGTC,-0.02
3,AGTGTCACGTGTTATG,0.17
4,ATAAGCACGTGCGGGT,-0.19
5,TGGATCACGTGTTGCA,0.08
6,GTTTTCACGTGGCTTA,0.25
7,TGTTGCACGTGAAGGG,0.16
8,GGAGGCACGTGCGGGT,-0.09
9,GGCGGCACGTGTGGAT,0.02
10,TACGGCACGTGTGGGA,-0.11
11,GGTGACACGTGTTCTT,0.22
12,GTTGGCACGTGACGCT,0.12
13,AGAGTCACGTGAATTG,0.26
14,ATTGGCACGTGGTGAC,-0.25
15,GATGTCACGTGTCTGT,0.11
16,GGGTTCACGTGTGGCA,0.3
17,GGCGTCACGTGAGAGA,0.49
18,CTGAACACGTGAGGGT,0.19
19,TTAGACACGTGGTTTG,-0.09
20,GAGGGCACGTGGGGTA,-0.27
21,GTAGTCACGTGGGCAA,0.02
22,TGGTGCACGTGGAAAA,0.06
23,TGGATCACGTGTAAAG,0.28
24,AATAGCACGTGAAGTT,0.17
25,GGGGGCACGTGGAGGC,-0.03
26,GTGGACACGTGTGAAG,0.18

row,Sequence,relative binding free energy [kcal/mol]
1,CTATGCACGTGTGTTA,-0.25
2,GTGGTCACGTGCATGT,0.2
3,GCGGGCACGTGAGGTC,0.24
4,CTAAGCACGTGTTGTA,-0.15
5,CATGTCACGTGGTAAG,-0.03
6,GTGAGCACGTGGCTTG,-0.06
7,CTGGTCACGTGTGATA,0.07
8,TCGGGCACGTGAGGGA,0.13
9,TTTTCCACGTGATAGT,0.05
10,GGTTTCACGTGGTTGG,0.34
11,AAATTCACGTGTGTAT,0.15
12,TGGGACACGTGCGAGA,0.03
13,GGTCGCACGTGATAGG,0.19
14,GGTCGCACGTGTGCTT,0.03
15,CCGGGCACGTGGTGTT,-0.29
16,ACGGGCACGTGGCGTG,-0.08
17,TTTCACACGTGGGGTG,-0.2
18,TAATTCACGTGTACTG,0.31
19,ATGCGCACGTGCGTTG,-0.19
20,TAGAACACGTGTTTTA,0.02
21,CTCGTCACGTGGATTT,0.23
22,TATTTCACGTGGACGT,0.18
23,TTTGACACGTGTTATG,0.04
24,CGTTTCACGTGGTCTG,0.2
25,GGGGTCACGTGCATTT,0.13
26,GTGCGCACGTGAATTT,0.24

row,Sequence,relative binding free energy [kcal/mol]
1,ATGAGCACGTGGGGAG,-0.27
2,GCGGACACGTGGCGGC,0.18
3,TATCACACGTGTAGTT,0.06
4,GCGTTCACGTGAGGTA,0.46
5,TGTGCCACGTGTTGAA,-0.07
6,GTGTGCACGTGCAGGG,0.04
7,TAATTCACGTGTGGCA,0.18
8,CCTGGCACGTGTGTTT,-0.1
9,TGGTCCACGTGGTACG,-0.06
10,CGTTTCACGTGATTGG,0.35
11,AGTTGCACGTGGGCGG,-0.07
12,TGATACACGTGGGCTG,-0.08
13,ATGGGCACGTGGCTGC,-0.18
14,GAGGTCACGTGAAGTT,0.4
15,TGAAGCACGTGCGTAG,-0.07
16,ACGATCACGTGATGTT,0.38
17,GGCGTCACGTGGTTAA,0.03
18,GTTTGCACGTGTAGGC,0.12
19,GTGATCACGTGTAATG,0.24
20,AATATCACGTGGTTGA,0.1
21,GGCGTCACGTGAGAGT,0.39
22,TACGGCACGTGCTTGT,-0.12
23,CTTGTCACGTGAGGCT,0.21
24,TCGGGCACGTGAGAGA,0.2
25,TTTGTCACGTGGGCGG,-0.07
26,TATGTCACGTGGAGAC,0.15

row,Sequence,relative binding free energy [kcal/mol]
1,TATATCACGTGATGAT,0.24
2,GGATGCACGTGCGGAT,-0.13
3,TGGACCACGTGGGTTA,-0.13
4,TAGGGCACGTGTGCGA,-0.06
5,CTCTACACGTGGGGGG,-0.12
6,ATGTTCACGTGGGCCT,0.07
7,CAGATCACGTGATGGG,0.28
8,AGTAGCACGTGCTAGT,-0.13
9,TGAGGCACGTGCCGTG,-0.26
10,TGATGCACGTGCTTAT,0
11,TAAGACACGTGAGCGT,0.28
12,GGTGCCACGTGTCGTT,-0.07
13,TCTGGCACGTGAGTGA,0.04
14,CGGGGCACGTGGTGCA,-0.24
15,GTGAACACGTGGTTGG,0.03
16,GGATACACGTGCGGGA,0.1
17,TATAACACGTGTGTTT,-0.07
18,TGGTTCACGTGTAACT,0.25
19,ATTTTCACGTGTTCGC,0.2
20,GGTTGCACGTGGCGGC,-0.13
21,GTAGTCACGTGGGGGA,-0.01
22,GCCGGCACGTGGTGTT,-0.07
23,GGATACACGTGGTATT,0.01
24,TCTTGCACGTGGGGTT,-0.23
25,ATTTGCACGTGTAGGT,0.1
26,GGCATCACGTGAGTCG,0.46

row,Sequence,relative binding free energy [kcal/mol]
1,AAGGACACGTGAGTGT,0.2
2,TTTGGCACGTGGTAGG,-0.07
3,TTGAGCACGTGGTCAG,-0.15
4,AGAGTCACGTGGGGCT,0.04
5,AGTTCCACGTGAGGGC,0.23
6,TACGGCACGTGATATG,0.05
7,TGTGTCACGTGCATTT,0.2
8,ATAGTCACGTGTAGGC,0.15
9,ATGGGCACGTGTGTTG,-0.1
10,TCGTACACGTGTTGTA,0.11
11,AAGGTCACGTGATTGA,0.08
12,ATTGGCACGTGGGCTC,-0.06
13,ATGTGCACGTGTTACG,-0.04
14,TTGCGCACGTGTTTTG,-0.17
15,GTTCGCACGTGATGTT,0.14
16,AGTGGCACGTGGAATG,-0.04
17,AGATGCACGTGAAGTT,0.25
18,TAGGTCACGTGTCGGC,0.03
19,TGAGCCACGTGGGAGT,-0.08
20,GTCTTCACGTGTTGGT,0.31
21,AGGTTCACGTGTTTGG,0.26
22,ATTTGCACGTGTCTAA,0
23,TTAGCCACGTGTGTTG,-0.08
24,TGTAGCACGTGATCTA,0.12
25,TACGGCACGTGAGTGA,0.15
26,TTTATCACGTGCTTCT,0.11

row,Sequence,relative binding free energy [kcal/mol]
1,AGAGGCACGTGTTGAT,-0.07
2,GTTCTCACGTGATGTA,0.4
3,GGTGCCACGTGAGTGA,0.19
4,TTTCTCACGTGTCGTT,0.27
5,GGTGGCACGTGGAGAT,-0.02
6,CGTGGCACGTGGGCGT,-0.25
7,TTTGTCACGTGCTCGG,0.04
8,CGGGACACGTGGCAGG,-0.06
9,GTAGTCACGTGCGTAA,0.06
10,AGTCTCACGTGTCATG,0.27
11,GGGTGCACGTGTAACT,0.13
12,AGTTGCACGTGCGTAG,-0.04
13,GTCTTCACGTGAGGGT,0.4
14,AGATACACGTGTTTTG,-0.06
15,TCTGGCACGTGATGTT,-0.06
16,GGGTACACGTGTTTGC,0.18
17,GAAGACACGTGTAGGG,0.02
18,CTATTCACGTGTGCGT,0.25
19,GTGAGCACGTGTTCAT,-0.04
20,TGTTTCACGTGACTTT,0.32
21,CGTTGCACGTGGAGAT,0.02
22,GGTCGCACGTGAAGTA,0.25
23,GGGTTCACGTGGAGGG,0.39
24,GGGACCACGTGGTAGG,-0.07
25,TCGATCACGTGTGGGG,0.23
26,TTGGACACGTGGTGTA,-0.06

row,Sequence,relative binding free energy [kcal/mol]
1,CCAGGCACGTGGGGAT,-0.17
2,GGGAACACGTGGAGAG,-0.03
3,TTGAACACGTGGTTGT,0.09
4,ATGTTCACGTGGAATT,0.17
5,TTAAACACGTGCGTGT,0.05
6,TGATGCACGTGACAGT,0.03
7,ACTGGCACGTGTAGTG,-0.19
8,TGAGGCACGTGGCACG,-0.16
9,ATGGTCACGTGATTCT,0.31
10,ATAGGCACGTGGCTTG,-0.15
11,AGTTCCACGTGTTTAG,0.07
12,AATGACACGTGGGCGG,-0.24
13,TTAAACACGTGTTGAG,0.01
14,TTGATCACGTGTGTAA,0.2
15,ATTGGCACGTGCGATG,-0.14
16,AGGGTCACGTGCAGGC,-0.02
17,CGTCGCACGTGCTGGT,-0.03
18,GTGTGCACGTGTGATT,0.2
19,TGGTTCACGTGATGTC,0.37
20,GTCGTCACGTGTGATT,0.19
21,CTTTCCACGTGGTTTG,0.04
22,TTATGCACGTGCGGAG,-0.07
23,GGGTACACGTGGCGGT,0.06
24,AAATTCACGTGCTGGG,0.15
25,TTCGTCACGTGTGGAG,0.09
26,ATAGTCACGTGATAAT,0.29

row,Sequence,relative binding free energy [kcal/mol]
1,AAGGGCACGTGTCATG,-0.15
2,GACTGCACGTGTAGTG,0.11
3,GGAGGCACGTGGTCGT,-0.17
4,CTGAGCACGTGTATGG,0.02
5,AGACACACGTGGGTTG,-0.2
6,ACTGTCACGTGAGGGA,0.31
7,AGTATCACGTGTATTA,0.11
8,TTGATCACGTGGTGTA,0.05
9,GTCGTCACGTGGCGGG,0.02
10,TGTGGCACGTGAGTTT,0.14
11,TTTTCCACGTGTTTTT,0.07
12,TGGTTCACGTGTGGCA,0.23
13,TATTTCACGTGTCAGC,0.36
14,ATTGGCACGTGTAAGT,-0.02
15,GGCGACACGTGTGTGC,0.08
16,TTATTCACGTGCTCGT,0.18
17,TTTTTCACGTGCGGGT,0.4
18,TACGCCACGTGAGGGT,0.07
19,TAAGGCACGTGTTAAG,-0.06
20,AGTCTCACGTGAGTAT,0.44
21,GGAATCACGTGGATAT,0.21
22,AGAGTCACGTGTAAGT,0.28
